Laboratory results published in the supplement of paper PMC3334620.
The full ranking holds about 33,000 sequences; the median of “E-score (-0.5 to 0.5)” is about -0.043, and the highest 2% start at about 0.37. Some of the results follow.

What follows are sequences tested against T1, Upc2 (UniProt Q12151) (assay: PBM E-score (8-mer binding enrichment) (E-score (-0.5 to 0.5)); higher = stronger / more preferred TF binding; most listed sequences are background and not binding sites). Conditions: protein concentration: 200 nM; construct: GST-full length.
T1 sequence: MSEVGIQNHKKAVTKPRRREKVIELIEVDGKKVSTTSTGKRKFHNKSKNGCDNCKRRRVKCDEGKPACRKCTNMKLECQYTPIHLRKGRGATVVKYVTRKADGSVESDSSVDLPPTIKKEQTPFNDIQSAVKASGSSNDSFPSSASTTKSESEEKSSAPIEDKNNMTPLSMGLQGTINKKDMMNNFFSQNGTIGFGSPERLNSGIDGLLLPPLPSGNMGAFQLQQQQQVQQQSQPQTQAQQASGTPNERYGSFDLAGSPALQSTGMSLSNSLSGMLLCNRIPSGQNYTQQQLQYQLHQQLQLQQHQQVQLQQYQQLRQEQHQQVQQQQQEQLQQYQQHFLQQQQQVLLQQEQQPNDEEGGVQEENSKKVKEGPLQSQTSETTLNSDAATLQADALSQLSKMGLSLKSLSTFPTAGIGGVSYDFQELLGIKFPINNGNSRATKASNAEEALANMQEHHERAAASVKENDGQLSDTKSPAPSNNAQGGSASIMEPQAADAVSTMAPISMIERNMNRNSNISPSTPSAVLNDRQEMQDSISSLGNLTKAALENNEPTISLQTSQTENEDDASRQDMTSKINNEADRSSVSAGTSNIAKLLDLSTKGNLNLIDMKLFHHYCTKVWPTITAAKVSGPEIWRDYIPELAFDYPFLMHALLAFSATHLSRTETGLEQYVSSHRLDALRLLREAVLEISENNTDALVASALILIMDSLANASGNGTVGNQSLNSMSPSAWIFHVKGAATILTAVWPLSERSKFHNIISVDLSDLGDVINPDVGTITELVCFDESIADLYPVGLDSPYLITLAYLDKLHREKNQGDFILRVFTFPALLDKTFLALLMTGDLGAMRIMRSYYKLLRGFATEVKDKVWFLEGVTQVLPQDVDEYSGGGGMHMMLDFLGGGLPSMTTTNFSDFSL
Outline: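 GST-tagged yeast TFs (full-length or DNA-binding domain) were made by PURExpress in vitro transcription/translation and applied at about 100-200 nM to universal all-10-mer Agilent arrays. The arrays were made double-stranded by primer extension, on fresh or once-stripped slides. Bound protein was detected with fluorescent anti-GST, and scans were normalised with masliner. Each ungapped eight-base word, pooled with its reverse complement, received an E-score (modified Wilcoxon-Mann-Whitney statistic) from the Universal PBM Analysis Suite.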

Row | Sequence | PBM E-score
1 | GGGTCCAC | -0.33
2 | ACTGCAGA | -0.152
3 | ACCACAGC | -0.112
4 | CCTGATAG | -0.183
5 | ATCGGTCC | -0.00666
6 | AGAGCTCG | 0.216
7 | GTCTCGGA | 0.162
8 | AGGCTTGC | -0.252
9 | CTTCAGGA | -0.0676
10 | AGTCAAAA | -0.0553
11 | CCAGCATA | -0.111
12 | ACACTTCA | -0.0869
13 | ATGATTCC | -0.0756
14 | GAGTCGAA | 0.055
15 | GGCGCGTA | 0.238
16 | GATATTCC | -0.00881
17 | CCCCCCTA | -0.262
18 | CGCATATA | 0.205
19 | TATGCACA | -0.00231
20 | ACTTTACC | 0.0162
21 | TGGGATAA | -0.284
22 | TCCTAGGA | -0.319
23 | AATGACAT | -0.147
24 | TAAAGTAA | 0.0156
25 | ACCTCAAG | -0.206

Row | Sequence | PBM E-score
26 | CATTGAAC | 0.189
27 | CTTGACCC | -0.144
28 | AGATCAGG | -0.0626
29 | GTTCTATA | 0.162
30 | CTTCATGC | -0.044
31 | AGCGTCAC | -0.0383
32 | ACCGCCAG | -0.0637
33 | GAAAGTAA | 0.039
34 | AAGTGACG | -0.0668
35 | ACATCGGT | -0.133
36 | AAGAGCAA | -0.137
37 | CCCATAGA | -0.273
38 | CGCTAAAA | 0.225
39 | GTGCGCAC | 0.0494
40 | TGGTTACA | 0.0964
41 | ATACCTTC | -0.0711
42 | ACCAGAAG | -0.129
43 | ACAGACTA | 0.0641
44 | GTAAATTA | 0.0975
45 | CAGGCCGC | -0.167
46 | ACCTTCAG | -0.0717
47 | ATTCCAAT | -0.0975
48 | AAGGCGCG | 0.0648
49 | ATGCAATC | 0.0196
50 | ATGGACTA | -0.0617

Row | Sequence | PBM E-score
51 | CGTATGAA | 0.405
52 | CTTCTTTA | 0.0205
53 | CACACGAA | 0.239
54 | AAACCCGC | -0.0992
55 | ATGCCGAG | 0.154
56 | CCGGCTCA | -0.257
57 | AACCGAAT | 0.277
58 | ATCTGTCA | -0.0123
59 | CTCGATTC | -0.0211
60 | GCAAGTAA | -0.174
61 | ATGGCTTC | -0.181
62 | ACTGAGAC | -0.105
63 | ATTACGCC | -0.108
64 | AAATATCC | 0.0979
65 | ACGCCGAC | 0.0662
66 | CGGGTGGA | -0.0263
67 | TCGGTTAA | 0.356
68 | CTGCGAGC | -0.026
69 | CACCTTGG | -0.289
70 | ACGTGGGC | -0.0701
71 | GCAGGCTA | -0.224
72 | CTGCCGGA | -0.276
73 | ATTTCCGG | 0.00823
74 | ATCTTCAG | -0.0674
75 | GTGTGGCA | -0.371

Row | Sequence | PBM E-score
76 | AAATTGGT | 0.0678
77 | CACAGGTA | 0.116
78 | CTACCTAC | -0.0272
79 | CTGCCGGC | -0.261
80 | GTGGAACA | 0.0251
81 | AACTACTT | -0.18
82 | CAAGCGGG | -0.144
83 | GGGGTCAC | -0.214
84 | AGAAATTA | 0.065
85 | AGAGGAGA | -0.164
86 | CAACGAAC | 0.257
87 | TCTCCCCA | -0.16
88 | ATGCCGGA | -0.0122
89 | GGCCGGTA | -0.0202
90 | TAAGGGTA | -0.127
91 | CAATAACC | 0.0495
92 | GAAACAGA | -0.0318
93 | TACCCACA | -0.0512
94 | TAGATTGA | 0.0547
95 | ACTAAGCC | -0.16
96 | CCATATCG | -0.00282
97 | ACCCTTCA | -0.00307
98 | CCTTATAG | 0.0464
99 | GTGACAGA | 0.0515
100 | ACTGAACG | 0.395

Row | Sequence | PBM E-score
101 | AACAGTAC | 0.131
102 | CTTGAGGC | -0.247
103 | ATTGTACA | -0.0603
104 | TTATGCAA | -0.00146
105 | AAGTACGC | 0.115
106 | ACGCTGGC | 0.0502
107 | GACTGTGC | 0.00477
108 | CCCCTGCG | -0.182
109 | CCGACCCA | -0.00267
110 | CGCCGGCA | -0.161
111 | CAAAGGCC | -0.206
112 | ACGGGCCA | 0.0391
113 | CAAGGACG | -0.255
114 | ACCTAACA | 0.0599
115 | GCTGCACA | -0.225
116 | ACTTGAGG | -0.202
117 | GAAACGAC | 0.423
118 | AAAAAAAC | -0.00164
119 | ACCCCGTA | 0.327
120 | CCTTTTTC | -0.178
121 | GTAGTTTA | 0.137
122 | GAATAGCA | -0.0573
123 | AGACAGTG | -0.17
124 | AGACTTTA | -0.0691
125 | AGCACAGA | -0.109

Row | Sequence | PBM E-score
126 | GAAATCTA | -0.0095
127 | ATGTCTGG | -0.00617
128 | CCTGTCGC | 0.0153
129 | AGAATTCT | 0.136
130 | AGGGAATG | -0.237
131 | AGATCGGA | -0.0579
132 | CCTGATTA | -0.0975
133 | AATTGTCC | -0.0711
134 | ACAGTACA | 0.0931
135 | ACACAAAG | 0.0503
136 | CAAGTATG | -0.0812
137 | TCGAGCGA | 0.0406
138 | CCGCACAC | -0.0323
139 | CAAATCAA | -0.0805
140 | AGCCTCCC | -0.184
141 | ATACACTA | -0.0748
142 | ATGTGGCG | -0.0487
143 | GCCCTCGC | 0.219
144 | GTGTATAA | 0.138
145 | CCCGGGCC | -0.0985
146 | CCGACTGA | 0.0637
147 | AATAGGGT | 0.00758
148 | CCGACGCC | -0.0132
149 | CACACTCA | -0.116
150 | ATTCGCGA | 0.277

Row | Sequence | PBM E-score
151 | CCCCCCCG | -0.178
152 | AAAAGCCT | -0.282
153 | ATAGTCAT | -0.0152
154 | GAAGTCAA | -0.00967
155 | AGCCTTTC | -0.232
156 | ATTCAACA | -0.0241
157 | CCTTTAAC | 0.217
158 | AATCCTTA | -0.136
159 | CACGCTCC | -0.339
160 | CAGATATA | -0.0677
161 | CGAATCCG | 0.181
162 | AAGCTCGA | 0.0415
163 | ACTGTTAC | 0.119
164 | CAGTGAAA | 0.0712
165 | ATGTCTGA | -0.112
166 | ATGTCGTG | -0.0693
167 | AGTTATAA | 0.0366
168 | CTAATTCA | -0.0938
169 | CGCATGTA | 0.0289
170 | CGTACAAG | 0.442
171 | GGTTTGGA | -0.0119
172 | CATATTAA | 0.13
